Reference: the supplement of paper PMC12217912
This is one part of the list. The full chains were built here from the parent and the listed change. Inactive controls read about 0.05.

B1: TEV protease; numbered along this chain (parent)
chain: MGESLFKGPRDYNPISSSICHLTNESDGHTTSLYGIGFGPFIITNKHLFRRNNGTLVVQSLHGVFKVKDTTTLQQHLVDGRDMIIIRMPKDFPPFPQKLKFREPQREERICLVTTNFQTKSMSSMVSDTSCTFPSGDGIFWKHWIQTKDGQCGSPLVSTRDGFIVGIHSASNFTNTNNYFTSVPKNFMELLTNQEAQQWVSGWRLNADSVLWGGHKVFMVKPEEPFQPVKEATQL

Variants of: B1
Test: raw area under fraction-flipped curve 0-4 h after induction (AUC4h, not background-subtracted), DNA-recorder readout of cleavage of the substrate (dimensionless); higher = more cleavage of the substrate by the protease variant
Settings: temperature: 34 °C; time window: 0-4 h after rhamnose induction
Procedure: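 In vivo DNA recorder in E. coli TOP10(DE3) ΔrhaA at 34 °C. Each TEVp single-site mutant (parent TEVp 0) is paired with a single-site variant of the 7-mer TEVs (canonical ENLYFQ|S). The substrate sits between flexible linkers in a Bxb1-sfGFP-TEVs-SsrA fusion, so cleavage stabilises Bxb1 and speeds flipping of a recombination array, read by NGS. The value is the raw area under the fraction-flipped curve over 0-4 h after rhamnose induction (AUC4h), with ≥20 reads per time point. It is not background-subtracted; inactive controls average about 0.047.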
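Further: Bxb1 expression induced with 0.2% (w/v) L-rhamnose at OD600 near 0.5, cultures sampled hourly, flipped fraction per protease–substrate barcode pair counted by paired-end Illumina sequencing.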

Variant: MGESLFKGPRDYNPISSSICHLTNESDGHTTSLYGIGFGPFIITNKHLFRRNNGTLVVQSLHGVFKVKDTTTLQQHLVDGRDMIIIRMPKDFPPFPQKLKFREPQREERICLVTTNFQTKSMSSMVSDTSCTFPSGDGIFWKHWIQTKQGQCGSPLVSTRDGFIVGIHSASNFTNTNNYFTSVPKNFMELLTNQEAQQWVSGWRLNADSVLWGGHKVFMVKPEEPFQPVKEATQL [D149Q]
- area with substrate ENLYFQA: 0.1
- area with substrate ENLYFQC: 0.106
- area with substrate ENLYFQK: 0.0539
- area with substrate ENLYFQL: 0.0583
- area with substrate ENLYFQM: 0.0677
- area with substrate ENLYFQP: 0.0519
- area with substrate ENLYFQR: 0.0668
- area with substrate ENLYFQS: 0.0883
- area with substrate ENLYFQW: 0.0506
- area with substrate ENLYFQY: 0.0953

Variant: MGESLFKGPRDYNPISSSICHLTNESDGHTTSLYGIGFGPFIITNKHLFRRNNGTLVVQSLHGVFKVKDTTTLQQHLVDGRDMIIIRMPKDFPPFPQKLKFREPQREERICLVTTNFQTKSMSSMVSDTSCTFESGDGIFWKHWIQTKDGQCGSPLVSTRDGFIVGIHSASNFTNTNNYFTSVPKNFMELLTNQEAQQWVSGWRLNADSVLWGGHKVFMVKPEEPFQPVKEATQL [P134E]
- area with substrate ENLYFQA: 0.0904
- area with substrate ENLYFQC: 0.106
- area with substrate ENLYFQE: 0.0673
- area with substrate ENLYFQF: 0.072
- area with substrate ENLYFQH: 0.0993
- area with substrate ENLYFQI: 0.0609
- area with substrate ENLYFQK: 0.0575
- area with substrate ENLYFQL: 0.0569
- area with substrate ENLYFQM: 0.0817
- area with substrate ENLYFQP: 0.0735
- area with substrate ENLYFQQ: 0.067
- area with substrate ENLYFQR: 0.0616
- area with substrate ENLYFQS: 0.102
- area with substrate ENLYFQV: 0.0613
- area with substrate ENLYFQW: 0.061

Variant: MGESLFKGPRDYNPISSSICHLTNESDGHTTSLYGIGFGPFIITNKHLFRRNNGTLVVQSLHGVFKVKDTTTLQQHLVDGRDMIIIRMPKDFPPFPQKLKFREPQREERICLVTTNFQTKSMSSMVSDTSCTFLSGDGIFWKHWIQTKDGQCGSPLVSTRDGFIVGIHSASNFTNTNNYFTSVPKNFMELLTNQEAQQWVSGWRLNADSVLWGGHKVFMVKPEEPFQPVKEATQL [P134L]
- area with substrate ENLYFQA: 0.059
- area with substrate ENLYFQC: 0.109
- area with substrate ENLYFQD: 0.051
- area with substrate ENLYFQG: 0.0624
- area with substrate ENLYFQH: 0.0472
- area with substrate ENLYFQI: 0.0798
- area with substrate ENLYFQK: 0.0644
- area with substrate ENLYFQL: 0.0641
- area with substrate ENLYFQM: 0.0652
- area with substrate ENLYFQN: 0.04
- area with substrate ENLYFQQ: 0.0487
- area with substrate ENLYFQS: 0.0787
- area with substrate ENLYFQV: 0.0703
- area with substrate ENLYFQW: 0.0549
- area with substrate ENLYFQY: 0.0521

Variant: MGESLFKGPRDYNPISSSICHLTNESDGHTTSLYGIGFGPFIITNKHLFRRNNGTLVVQSLHGVFKVKDTTTLQQHLVDGRDMIIIRMPKDFPPFPQKLKFREPQREERICLVTTNFQTKSMSSMVSDTSCTDPSGDGIFWKHWIQTKDGQCGSPLVSTRDGFIVGIHSASNFTNTNNYFTSVPKNFMELLTNQEAQQWVSGWRLNADSVLWGGHKVFMVKPEEPFQPVKEATQL [F133D]
- area with substrate ENLYFQA: 0.13
- area with substrate ENLYFQC: 0.104
- area with substrate ENLYFQF: 0.0808
- area with substrate ENLYFQG: 0.0776
- area with substrate ENLYFQH: 0.0807
- area with substrate ENLYFQI: 0.0604
- area with substrate ENLYFQK: 0.115
- area with substrate ENLYFQM: 0.0779
- area with substrate ENLYFQN: 0.0726
- area with substrate ENLYFQP: 0.0731
- area with substrate ENLYFQR: 0.0585
- area with substrate ENLYFQS: 0.0958
- area with substrate ENLYFQT: 0.0613
- area with substrate ENLYFQV: 0.0767
- area with substrate ENLYFQW: 0.0995

Variant: MGESLFKGPRDYNPISSSICHLTNESDGHTTSLYGIGFGPFIITNKHLFRRNNGTLVVQSLHGVFKVKDTTTLQQHLVDGRDMIIIRMPKDFPPFPQKLKFREPQREERICLVTTNFQTKSMSSMVSDTSCTFPSGDGIFWKHQIQTKDGQCGSPLVSTRDGFIVGIHSASNFTNTNNYFTSVPKNFMELLTNQEAQQWVSGWRLNADSVLWGGHKVFMVKPEEPFQPVKEATQL [W144Q]
- area with substrate ENLYFQA: 0.086
- area with substrate ENLYFQC: 0.0861
- area with substrate ENLYFQG: 0.0916
- area with substrate ENLYFQI: 0.0586
- area with substrate ENLYFQL: 0.0613
- area with substrate ENLYFQM: 0.0903
- area with substrate ENLYFQP: 0.0566
- area with substrate ENLYFQR: 0.0555
- area with substrate ENLYFQS: 0.0824
- area with substrate ENLYFQT: 0.0269
- area with substrate ENLYFQW: 0.0672
- area with substrate ENLYFQY: 0.0572

Variant: MGESLFKGPRDYNPISSSICHLTNESDGHTTSLYGIGFGPFIITNKHLFRRNNGTLVVQSLHGVFKVKDTTTLQQHLVDGRDMIIIRMPKDFPPFPQKLKFREPQREERICLVTTNFQTKSMSSMVSDTSCTFPSGDGIFWKHLIQTKDGQCGSPLVSTRDGFIVGIHSASNFTNTNNYFTSVPKNFMELLTNQEAQQWVSGWRLNADSVLWGGHKVFMVKPEEPFQPVKEATQL [W144L]
- area with substrate ENLYFQA: 0.0796
- area with substrate ENLYFQC: 0.0838
- area with substrate ENLYFQD: 0.0702
- area with substrate ENLYFQL: 0.076
- area with substrate ENLYFQR: 0.0739
- area with substrate ENLYFQS: 0.0864
- area with substrate ENLYFQW: 0.0777
- area with substrate ENLYFQY: 0.0639

Variant: MGESLFKGPRDYNPISSSICHLTNESDGHTTSLYGIGFGPFIITNKHLFRRNNGTLVVQSLHGVFKVKDTTTLQQHLVDGRDMIIIRMPKDFPPFPQKLKFREPQREERICLVTTNFQTKSMSSMVSDTSCTFPSGDGNFWKHWIQTKDGQCGSPLVSTRDGFIVGIHSASNFTNTNNYFTSVPKNFMELLTNQEAQQWVSGWRLNADSVLWGGHKVFMVKPEEPFQPVKEATQL [I139N]
- area with substrate ENLYFQA: 0.107
- area with substrate ENLYFQC: 0.0987
- area with substrate ENLYFQF: 0.0699
- area with substrate ENLYFQG: 0.0984
- area with substrate ENLYFQH: 0.0945
- area with substrate ENLYFQI: 0.0714
- area with substrate ENLYFQK: 0.055
- area with substrate ENLYFQL: 0.0596
- area with substrate ENLYFQN: 0.06
- area with substrate ENLYFQP: 0.0551
- area with substrate ENLYFQR: 0.0626
- area with substrate ENLYFQS: 0.105
- area with substrate ENLYFQT: 0.0614
- area with substrate ENLYFQV: 0.0671
- area with substrate ENLYFQW: 0.0637
- area with substrate ENLYFQY: 0.0618

Variant: MGESLFKGPRDYNPISSSICHLTNESDGHTTSLYGIGFGPFIITNKHLFRRNNGTLVVQSLHGVFKVKDTTTLQQHLVDGRDMIIIRMPKDFPPFPQKLKFREPQREERICLVTTNFQTKSMSSMVSDTSCTFPSGDGIFWKHWIQTKDGHCGSPLVSTRDGFIVGIHSASNFTNTNNYFTSVPKNFMELLTNQEAQQWVSGWRLNADSVLWGGHKVFMVKPEEPFQPVKEATQL [Q151H]
- area with substrate ENLYFQA: 0.0862
- area with substrate ENLYFQC: 0.0956
- area with substrate ENLYFQG: 0.0987
- area with substrate ENLYFQH: 0.0798
- area with substrate ENLYFQI: 0.0416
- area with substrate ENLYFQK: 0.0517
- area with substrate ENLYFQL: 0.0547
- area with substrate ENLYFQN: 0.0662
- area with substrate ENLYFQP: 0.0417
- area with substrate ENLYFQR: 0.0952
- area with substrate ENLYFQS: 0.0895
- area with substrate ENLYFQV: 0.067
- area with substrate ENLYFQW: 0.0577

Variant: MGESLFKGPRDYNPISSSICHLTNESDGHTTSLYGIGFGPFIITNKHLFRRNNGTLVVQSLHGVFKVKDTTTLQQHLVDGRDMIIIRMPKDFPPFPQKLKFREPQREERICLVTTNFQTKSMSSMVSDTSCTFPSGDGIPWKHWIQTKDGQCGSPLVSTRDGFIVGIHSASNFTNTNNYFTSVPKNFMELLTNQEAQQWVSGWRLNADSVLWGGHKVFMVKPEEPFQPVKEATQL [F140P]
- area with substrate ENLYFQA: 0.0545
- area with substrate ENLYFQC: 0.0577
- area with substrate ENLYFQD: 0.0558
- area with substrate ENLYFQE: 0.0575
- area with substrate ENLYFQF: 0.0498
- area with substrate ENLYFQG: 0.0558
- area with substrate ENLYFQK: 0.0566
- area with substrate ENLYFQL: 0.0553
- area with substrate ENLYFQM: 0.0515
- area with substrate ENLYFQP: 0.0471
- area with substrate ENLYFQQ: 0.0548
- area with substrate ENLYFQR: 0.0567
- area with substrate ENLYFQS: 0.0623
- area with substrate ENLYFQT: 0.0601
- area with substrate ENLYFQV: 0.0551
- area with substrate ENLYFQW: 0.0432
- area with substrate ENLYFQY: 0.0627
